According to ChEMBL document CHEMBL1156829:
Over roughly 5,400 compounds, “IFI” has its median near 2; the highest 2% begin near 22. The list shows a part of the results.

Assay: NOVARTIS: Inhibition Frequency Index (IFI) - the number of HTS assays where a compound showed > 50% inhibition/induction, expressed as a percentage of the number of assays in which the compound was tested.
Assay type: functional

Row | Compound | IFI [%]
1 | COc1cc(OC)cc(C(=O)NCc2n[nH]c(=S)n2-c2cccc(Cl)c2)c1 | 1.15
2 | CCOC(=O)C1=C(C)NC2=C(C(=O)CC(c3ccc(Cl)cc3)C2)C1c1ccc(Br)cc1 (stereo unspecified) | 5.88
3 | Cc1ccc(C)c(-c2csc(Nc3ccc(C)c(C)c3)n2)c1 | 5.88
4 | CCCCCCN(C(=O)COc1ccc(Cl)cc1)C(CC)c1nc2ccccc2c(=O)n1-c1cccc(Cl)c1 (stereo unspecified) | 1.89
5 | CC(=O)N(C1=C(N(C)C)C(=O)c2ccccc2C1=O)c1cccc(O)c1 | 0
6 | CCN1CCN(c2cc(C)c3cc(NC(=O)c4cccc([N+](=O)[O-])c4)ccc3n2)CC1 | 0
7 | Cc1ccc2nc(Nc3ncc4c(n3)CC(C)(C)CC4=O)nc(C)c2c1 | 0
8 | O=C(Nc1ccc(C2=NCCN2)cc1)Nc1cc(C(=O)Nc2ccc(C3=NCCN3)cc2)ccc1C(=O)Nc1ccc(C2=NCCN2)cc1 | 1.8
9 | CCOC(=O)C1=C(CC)NC2=C(C(=O)CC(C)(C)C2)C1c1ccc(Cl)cc1Cl (stereo unspecified) | 0
10 | CCN(CC)CCCC(C)Nc1c2ccc(Cl)cc2nc2ccc(OC)nc12 (stereo unspecified) | 9.76
11 | CN(CCCNc1ccnc2cc(Cl)ccc12)S(=O)(=O)c1ccc(Br)cc1 | 7.41
12 | CCOC(=O)c1c(NC(=O)COc2ccccc2[N+](=O)[O-])sc(C(C)=O)c1C | 0
13 | CC1(C)N=C(N)N=C(N)N1c1ccccc1 | 5.3
14 | Cc1ccc(CSCc2ccc(C(=O)NC3CC3)o2)cc1 | 0
15 | N#Cc1ccc(NC(=O)c2cc(Cl)ccc2O)cc1 | 24.7
16 | C[n+]1c(/C=C/c2ccc(F)cc2)ccc2ccccc21 | 8.77
17 | CN(C)CCNc1ccc2ncc(-c3ccsc3)n2n1 | 0
18 | Cc1cccc(C(=O)NCc2nnc(S)n2-c2cccc(C(F)(F)F)c2)c1 | 1.18
19 | COc1ccc(OCC(O)CNC2CCN(CC(O)COc3ccc(Cl)c(Cl)c3)CC2)cc1 (stereo unspecified) | 3.36
20 | CN(C)CCCn1c(N)c(-c2nc3ccccc3[nH]2)c2nc(C#N)c(C#N)nc21 | 0
21 | CCn1c(SCC(=O)N(c2ccccc2)c2ccccc2)nc2sc3c(c2c1=O)CCN(C)C3 | 2
22 | COc1ccc(-c2ccc(C(=O)N(C)Cc3cscn3)c(N3CCC(N4CCc5ccccc5C4)CC3)n2)cc1 | 3.85
23 | CCOC(=O)c1c(N=Cc2cccc(OC)c2O)sc2c1CCN(C)C2 | 0
24 | Cc1ccnc(Nc2nc(-c3ccccn3)cs2)c1 | 24.6
25 | CC(=O)Nc1cccc(NC(=O)C(F)(F)F)c1 | 4.76
26 | COc1cc(C2c3[nH]c4ccccc4c3C[C@@H]3C(=O)N(CCc4ccccc4)CC(=O)N23)cc(OC)c1OC (stereo partly specified) | 2

Row | Compound | IFI [%]
27 | CCCCC(CC)C(=O)NCCCCNc1ccnc2cc(Cl)ccc12 (stereo unspecified) | 7.41
28 | Cc1ccc(CNC(=O)c2cc3sc(Cl)cc3n2C)cc1 | 0
29 | Cc1cccc(NC(=O)N2CCN(C(=O)c3nc(-c4ccccc4)nc(C)c3C(=O)OC(C)C)CC2C)c1C (stereo unspecified) | 1.87
30 | O=C(NC1CC1)c1ccc(OC2CCN(CC3CCCCC3)CC2)c(Cl)c1 | 2.78
31 | O=C(NN=Cc1c(O)ccc2ccccc12)c1cccnc1 | 14.7
32 | Cc1cccc(CCNc2cc(C)nc3ncnn23)c1 | 0
33 | CC12C(=O)N(c3cccc(C(=O)O)c3)C(=O)C1C1c3ccccc3C2c2ccccc21 (stereo unspecified) | 0
34 | Clc1ccc2[nH]c3c(NCCC4=CCCCC4)ncnc3c2c1 | 15
35 | Cc1ccn2c(NC(C)(C)CC(C)(C)C)c(-c3ccccc3OC(=O)C(c3ccccc3)c3ccccc3)nc2c1 | 2.15
36 | O=C(Nc1ccc(-c2nc3cc(NC(=O)c4ccc(Br)o4)ccc3[nH]2)cc1)c1ccc(Br)o1 | 7.69
37 | CCCCN(C)C(=O)c1sc2ncn(CC(=O)N(CC)CC)c(=O)c2c1C | 0
38 | CCn1c(SCc2ccc(Cl)cc2Cl)nc2sc3c(c2c1=O)CCN(C)C3 | 11.8
39 | COC(=O)CSc1nnc2c(n1)[nH]c1c(OC)ccc(Cl)c12 | 3.19
40 | CCCCN(CCCC)c1nc(=O)cc(-c2ccc(Cl)cc2)o1 | 0
41 | COc1ccc(NC(=O)NCc2cccn2Cc2ccc(F)cc2)cc1OC | 0
42 | CCNc1ncnc2sc(C(=O)NCc3csc(C)n3)c(C)c12 | 0
43 | O=C(Nc1ccc(-c2cn3ccsc3n2)cc1)c1ccc(S(=O)(=O)N2CCCCCC2)cc1 | 3.12
44 | O=C(O)c1ccc([C@@H]2Nc3c(ccc4ccccc34)[C@@H]3C=CC[C@@H]32)cc1 | 5.88
45 | CC(=O)N(C1=C(N2CCCC2)C(=O)c2ccccc2C1=O)c1ccc(I)cc1 | 1.33
46 | C=CCC1C=C(Cc2ccccc2)CC(CC=C)N1 (stereo unspecified) | 3.92
47 | CN(c1ncnc2sc3c(c12)CCCC3)C1CCCCC1 | 1.18
48 | CCOc1cc(C=NN=C(N)N)ccc1OCc1ccccc1 | 2.24
49 | CCc1cc2c(NCCN3CCCCC3)ncnc2s1 | 0
50 | CC(C)(C)CC(C)(C)Nc1c(-c2ccccc2OC(=O)c2ccccc2F)nc2ccccn12 | 2.83
51 | COc1ccc(CCNc2nc(NCCCn3ccnc3)ncc2C(=O)NCc2ccccc2)cc1OC | 0.952
52 | CC(=O)Nc1ccc(NC2=C(N3CCCCC3)C(=O)c3ccccc3C2=O)cc1 | 0

Row | Compound | IFI [%]
53 | CC(=O)N(Cc1ccc(F)cc1)C1=C(NCCc2ccccc2)C(=O)c2ccccc2C1=O | 8.33
54 | OCCCNc1cc(-c2ccccn2)nc(-c2ccccn2)n1 | 15.4
55 | CN=C1S/C(=C\c2ccc(OCC(=O)O)c(OC)c2)C(=O)N1C | 0
56 | CC(C)CNC(=O)c1cnc(NCCCn2ccnc2)nc1NCC(C)C | 0.98
57 | Cc1ccc(C(=O)CSc2nc(N)c(C#N)c(-c3cccs3)c2C#N)cc1 | 7.14
58 | Cc1cc(Nc2cccc([N+](=O)[O-])c2)nc2cc(O)ccc12 | 0
59 | COc1ccccc1/C=C\CN(C(=O)c1ccc(C)cc1)C(c1ccccc1)c1ccccc1 | 2.2
60 | NC1(C(=O)O)CCc2cc(C(=O)O)ccc21 (stereo unspecified) | 1.48
61 | O=[N+]([O-])c1ccc(N2CCCN(C(=S)Nc3ccccc3)CC2)nc1 | 1.67
62 | Fc1ccc(Nc2nc(NCc3ccccc3)c3ccccc3n2)cc1 | 9.52
63 | O=[N+]([O-])c1ccc(C=NNc2nc3ccccc3[nH]2)cc1 | 1.47
64 | Cc1ccc(-c2nnc(N3CCOCC3)c3ccccc23)cc1S(=O)(=O)N1CCN(C)CC1 | 0
65 | O=C(O)C(Cc1ccc([N+](=O)[O-])cc1)NS(=O)(=O)c1ccc(OC(F)(F)F)cc1 (stereo unspecified) | 0
66 | CCCCCCCC(=O)N(C)CCCNc1ccnc2cc(Cl)ccc12 | 6.32
67 | CC[n+]1c(/C=C/N2CCCc3ccccc32)ccc2ccccc21 | 19.5
68 | O=C(Nc1ccc(-c2nc3cc(NC(=O)c4ccc(Cl)cc4)ccc3[nH]2)cc1)c1ccc(Cl)cc1 | 0
69 | CCCN(CCC)C(=O)c1c[nH]c2ccc(S(=O)(=O)N(C)c3ccc(F)cc3)cc2c1=O | 0
70 | CCOc1ccc2[nH]c(=O)c(CN(CCN(CC)CC)C(=S)NCCCN(CC)CC)cc2c1 | 4.63
71 | CCOC(=O)N1CCN(C(=O)c2cnc3ccc(C)cn3c2=O)CC1 | 0
72 | Cc1cccc2cc(CNC3CCOC(C)(C)C3)c(N3CCCC3)nc12 (stereo unspecified) | 1.72
73 | Cc1cccc2c1[nH]c1nc(SCC(C)C)nnc12 | 10.7
74 | O=C1CC(=O)Nc2cc(S(=O)(=O)NC3CCCCCCC3)ccc2N1 | 0
75 | COCCNc1cc(-c2ccccn2)nc(-c2ccccn2)n1 | 15.4
76 | COc1cccc(C(=O)C[n+]2cc(-c3ccc(Cl)cc3)n3c2CCC3)c1 | 2.44
77 | Cn1nc(C(=O)Nc2ccc(F)c(Cl)c2)c2c1-c1ccccc1S(=O)(=O)C2 | 0
78 | Cc1cc2c(cc1S(=O)(=O)N1CCCCC1C)OCC(=O)N2 (stereo unspecified) | 0

Row | Compound | IFI [%]
79 | CCOC(=O)c1c(C)[nH]c(C)c1S(=O)(=O)N1CCCC(C(=O)N2CCN(c3cccc(C)c3C)CC2)C1 (stereo unspecified) | 0
80 | CCOc1ccc(C(=O)C(CCC(C[N+]2(C)CCCCCC2)C(=O)c2ccc(OCC)cc2)C[N+]2(C)CCCCCC2)cc1 (stereo unspecified) | 0
81 | C=CC1(C)CC23CC(C(OC(=O)c4ccccc4)c4ccnc5ccccc45)N2CCC13 (stereo unspecified) | 3.64
82 | CCOC(=O)c1cnc2c(C)cc(C)cc2c1Nc1ccc(C(C)=O)cc1 | 0
83 | CCOC(=O)c1cccc(NC(=O)CCn2c(-c3ccc(F)cc3)cc(C(=O)OCC)c2C)c1 | 0
84 | CCN1CC=C2C(C#N)=C(N)C(C#N)(C#N)[C@H](c3ccc(C)s3)[C@H]2C1 | 3.28
85 | Cc1ccccc1C(=O)NCCCCNc1ccnc2cc(Cl)ccc12 | 2.8
86 | COC(=O)C1=C(C)NC2=C(C(=O)CC(c3ccc(OC)c(OC)c3)C2)C1c1ccccc1C (stereo unspecified) | 4.65
87 | O=C(NCc1ccccc1)c1cnc(NCCCN2CCCC2)nc1NCC1CCCCC1 | 0.971
88 | CN(C)c1ccc(NC(=O)c2cccnc2C(=O)O)cc1 | 6.02
89 | COc1cccc(OC)c1C(=O)NCCCCNc1ccnc2cc(Cl)ccc12 | 0.935
90 | N=c1c2ccccc2nnn1-c1ccc(C(F)(F)F)cc1 | 2.53
91 | Oc1c2c(nc3cc(-c4ccc(Br)cc4)nn13)CCCC2 | 9.52
92 | Cn1c(COc2ccc(Cl)cc2Cl)[n+](C)c2ccccc21 | 0
93 | CN(C)c1ccc(C=NNc2ncnc3nc[nH]c23)cc1 | 0
94 | Cc1ccc(NC(=O)COc2ccc(Cl)cc2Cl)nc1 | 8.33
95 | Cc1ccn(CC(=O)N2CCOc3c(cc(-c4csc5ccccc45)cc3OCCc3ccccn3)C2)n1 | 4
96 | C/C=C(\Cl)C1=CC(=O)[C@]23C[C@H]2[C@@]2(C)CO[C@@]1(O)[C@@]3(O)O2 | 6.86
97 | CC(=O)N1CCN(C(=O)CCCSc2nnc(-c3ccc(C)cc3)n2-c2cccc(C)c2)CC1C (stereo unspecified) | 2.75
98 | CSc1nc2nc(C)c(Cc3cccc(C(F)(F)F)c3)c(C)n2n1 | 1.25
99 | COC(=O)c1sc2nc(CN3CCC(C)CC3)ccc2c1NC(=O)c1ccc(C)s1 | 1.74
100 | c1ccc(-c2cc(N3CCN(c4ccccn4)CC3)nc(-c3ccccn3)n2)nc1 | 15.4
101 | O=C1CC(c2cccc([N+](=O)[O-])c2)c2cc3c(cc2N1)OCO3 (stereo unspecified) | 4
